Measurements taken from the supplement of paper PMC9334596.
Where “and” joins values, the source holds several entries; their conditions need not be identical. Equal values may be shown once. Whole data set: some 5,300 compounds, median “PER2::LUC luminescence relative to vehicle control” near 0.96, cut for the highest 2% near 1.3. The list shows a part of the results.

Tested on: mPer2Luc MEF
Assay: PER2::LUC luminescence relative to vehicle control (fold of vehicle); higher = higher PER2::LUC reporter signal
Settings: 10 µM
Method in brief: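 Each value gives PER2::LUC luminescence as fold of vehicle control, measured with the ONE-Glo luciferase assay system in mouse embryonic fibroblasts carrying the mPer2Luc reporter. Cells grown in DMEM with 10% FBS at 37 °C and 5% CO2 were seeded at ~3000 per well in 384-well plates. Library compounds were added at 10 μM 48 h later, and readings were taken 24 h and 30 h after treatment.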

SMILES | PER2::LUC luminescence (time after treatment 24 h) | PER2::LUC luminescence (time after treatment 30 h)
CC(=O)Oc1cc(C(C)C)c(OCCN(C)C)cc1C | 0.402 | 1
O=C(O)c1cc(O)c2c(c1)[C@H]([C@H]1c3cc(C(=O)O)cc(O)c3C(=O)c3c(O[C@@H]4O[C@H](CO)[C@@H](O)[C@H](O)[C@H]4O)cccc31)c1cccc(O[C@@H]3O[C@H](CO)[C@@H](O)[C@H](O)[C@H]3O)c1C2=O | 0.767 | 1.03
C[C@@H]1C(=O)O[C@H]2C[C@@]34[C@H]5C[C@@H](C(C)(C)C)[C@]36[C@@H](OC(=O)[C@@H]6O)O[C@@]4(C(=O)O5)[C@]21O | 1.02 | 0.98
CC(c1cc2ccccc2s1)N(O)C(N)=O (stereo unspecified) | 0.877 | 1.31
COc1cc(O)c(C(C)=O)c(OC)c1 | 0.941 | 0.952
Nc1ccn(C[C@@H](CO)OCP(=O)(O)O)c(=O)n1 | 1.07 | 1.02
O=C1c2ccccc2C(=O)c2c(NCCc3ccc(O)cc3)ccc(NCCc3ccc(O)cc3)c21 | 0.998 | 0.835
COc1ccc(Nc2nccc(NCCO)n2)cc1 | 1.05 | 0.976
CN(C)CCCOc1nn(Cc2ccccc2)c2ccccc12 | 0.564 | 0.631
O=C1c2c(O)cc(O)cc2OC(c2ccc(O)c(O)c2)C1O (stereo unspecified) | 0.873 | 0.963
O=C1c2c(O)cc(O)cc2O[C@H](c2ccc(O)c(O)c2)[C@H]1O | 0.967 and 0.966 | 0.947 and 0.931
OC[C@@H](O)[C@@H](O)[C@H](O)[C@@H](O)CO | 1.05 and 0.934 | 1.02 and 0.989
S=C=Nc1ccc(N=C=S)cc1 | 1.12 and 0.633 | 0.975 and 0.89
O=c1c(O)c(-c2ccccc2O)oc2cc(O)cc(O)c12 | 0.983 | 0.996
Cn1cc(C(=O)OCC2CCN(CCNS(C)(=O)=O)CC2)c2ccccc21 | 1.01 | 0.969
C#C[C@]1(O)CC[C@H]2[C@@H]3[C@H](C)CC4=C(CCC(=O)C4)[C@H]3CC[C@@]21C | 0.925 | 0.974
CC(C)(C)c1cc(C(=O)C(C#N)=NNc2cccc(Cl)c2)no1 | 1.1 | 1.11
CC(=O)OCC(=O)[C@@]1(O)CC[C@H]2[C@@H]3CCC4=CC(=O)C=C[C@]4(C)[C@@]3(F)[C@@H](O)C[C@@]21C | 0.602 | 0.941
COc1cc(C(=O)N2CCOCC2)cc(OC)c1OC | 0.835 | 0.821
CC(=O)OCC(=O)[C@@]1(O)CC[C@H]2[C@@H]3CCC4=CC(=O)CC[C@]4(C)[C@H]3C(=O)C[C@@]21C | 1.2 and 1.11 | 0.827 and 1.07
CNCC[C@H](Oc1ccc(C(F)(F)F)cc1)c1ccccc1 | 0.717 | 0.709

SMILES | PER2::LUC luminescence (time after treatment 24 h) | PER2::LUC luminescence (time after treatment 30 h)
CCCCC(=O)O[C@]1(C(=O)CO)[C@@H](C)C[C@H]2[C@@H]3CCC4=CC(=O)C=C[C@]4(C)[C@@]3(F)[C@@H](O)C[C@@]21C | 0.684 and 0.795 | 1.37 and 1.15
COc1cc2nc(N3CCN(C(=O)C4CCCO4)CC3)nc(N)c2cc1OC (stereo unspecified) | 0.991 and 0.919 | 0.924 and 0.931
Nc1ncnc2c1c(-c1ccc(Oc3ccccc3)cc1)nn2C1CCCC1 | 0.655 | 0.662
Oc1ccc(O)cc1 | 1.05 | 1.29
CN1CCN(c2cccc(Nc3nc4c(-c5ccc(S(C)(=O)=O)cc5)cccn4n3)c2)CC1 | 0.464 | 0.598
C[C@H]1C[C@H]2[C@@H]3CCC4=CC(=O)C=C[C@]4(C)[C@@]3(Cl)[C@@H](O)C[C@]2(C)[C@@]1(O)C(=O)CO | 0.657 | 0.815
CC1=C2C(O)C(=O)OC3CC4C(C)(C)C(=O)C=C[C@]4(C)C(CC1)[C@]23C (stereo partly specified) | 0.961 | 0.929
Cc1nc(N=Nc2ccc(C(=O)O)cc2)c(COP(=O)(O)O)c(C=O)c1O | 0.86 | 0.966
CN[C@@H](C)C(=O)N[C@H](C(=O)N1CCC[C@H]1C(=O)Nc1snnc1-c1ccccc1)C1CCCCC1 | 1 | 1.04
CC1CCC(NC(=O)N(CCCl)N=O)CC1 (stereo unspecified) | 1.27 | 1.02
CC(=O)c1ccc2c(c1)C1C=CCC1C(c1cc3c(cc1Br)OCO3)N2 (stereo unspecified) | 1.02 | 0.942
Nc1ccc(S(=O)(=O)Nc2ccc(Cl)nn2)cc1 | 1.05 and 1.04 | 1.03 and 0.996
CNC(=O)c1nn(C)c2c1C(C)(C)Cc1cnc(Nc3ccc(N4CCN(C)CC4)cc3)nc1-2 | 0.62 | 0.605
CC(C)(O)CC[C@@H](O)[C@](C)(O)[C@H]1CC[C@@]2(O)C3=CC(=O)[C@@H]4C[C@@H](O)[C@@H](O)C[C@]4(C)[C@H]3CC[C@]12C | 1.03 and 0.858 | 0.946 and 1.03
Cc1cc2nc3ccc(N(C)C)cc3[s+]c2cc1N | 0.712 | 0.54
CC1CCN=C(N)S1 (racemic) | 1.03 | 0.959
COC1=C(O)C(=O)c2c(cc3oc(C(C)=O)c(O)c3c2O)C1=O | 1.03 | 1.03
Cc1cc2c(cc1CC(=O)c1sccc1S(=O)(=O)Nc1onc(C)c1Cl)OCO2 | 1.02 and 0.92 | 0.932 and 0.885
O=C(O)Cc1ccc(-c2ccccc2)cc1 | 1.01 and 0.936 | 1.01 and 0.946
O=C(NC[C@H]1CN(c2ccc(N3CCOCC3=O)cc2)C(=O)O1)c1ccc(Cl)s1 | 1.04 | 1.04
C[C@@H]1C[C@H]2[C@@H]3C[C@H](F)C4=CC(=O)C=C[C@]4(C)[C@@]3(F)[C@@H](O)C[C@]2(C)[C@@]1(O)C(=O)CO | 0.741 | 1.1

SMILES | PER2::LUC luminescence (time after treatment 24 h) | PER2::LUC luminescence (time after treatment 30 h)
CC[C@H](/C=C/[C@@H](C)[C@H]1CC[C@H]2[C@@H]3CC=C4C[C@@H](O)CC[C@]4(C)[C@H]3CC[C@]12C)C(C)C | 1.09 | 1.02
COC(=O)C(O)CCn1cnc2c(N)ncnc21 (stereo unspecified) | 0.95 | 0.999
Fc1ccc2nc(CCC#Cc3ccccn3)cn2c1 | 1.02 | 1.11
O=C(O)c1cn(-c2ccc(F)cc2)c2cc(N3CCNCC3)c(F)cc2c1=O | 1.09 | 0.989
c1ccc(NCc2ccc(CNc3ccccn3)cc2)nc1 | 1.02 and 0.964 | 1.07 and 0.953
CC(=O)OCC(=O)[C@@]1(O)[C@@H](C)C[C@H]2[C@@H]3CCC4=CC(=O)C=C[C@]4(C)[C@@]3(F)[C@@H](O)C[C@@]21C | 0.552 | 0.966
COC(=O)c1ccc2c(c1)nc(NC(=O)c1ccccc1)n2CCCc1ccccc1 | 1.09 | 0.933
Cc1nnc(C(=O)NC(C)(C)c2nc(C(=O)NCc3ccc(F)cc3)c(O)c(=O)n2C)o1 | 1.02 and 1.12 | 0.959 and 1.11
CO[C@H]1C[C@H](O[C@@H]2/C(C)=C/C[C@@H]3C[C@@H](C[C@]4(CC[C@H](C)[C@H](C5CCCCC5)O4)O3)OC(=O)[C@H]3C=C(C)/C(=N\O)[C@H]4OCC(=C/C=C/[C@@H]2C)[C@@]34O)O[C@@H](C)[C@@H]1O | 0.989 | 0.929
CC(=O)Oc1ccc2c(c1OC(C)=O)OCC1(O)Cc3c(cc(OC(C)=O)c(OC(C)=O)c3OC(C)=O)C21 (stereo unspecified) | 0.911 | 0.792
CC(C)CC(N)=O | 1.01 | 0.845
NC(=NC1C2CC3CC(C2)CC1C3)Nc1ccc(I)cc1 (stereo unspecified) | 1.02 | 0.987
CN1CCN(C2=Nc3ccccc3Oc3ccc(Cl)cc32)CC1 | 0.954 and 0.682 | 0.911 and 1.04
N=C(NCCCCCCNC(=N)NC(=N)Nc1ccc(Cl)cc1)NC(=N)Nc1ccc(Cl)cc1 | 0.586 and 0.382 and 0.326 | 0.624 and 0.34 and 0.35
NCc1ccccc1CC(=O)N[C@@H]1C(=O)N2C(C(=O)O)=C(CSc3nnnn3CC(=O)O)CS[C@H]12 | 0.958 | 0.913
COc1ccc2c(OCc3nnc4ccc(-c5ccccc5)nn34)ccnc2c1 | 1.01 | 0.888
COc1c2occc2cc2ccc(=O)oc12 | 1 and 0.872 and 0.582 | 1.06 and 0.888 and 0.73
CC(C)c1ccc(C(=O)N=C(N)N)cc1S(C)(=O)=O | 1.02 | 0.943
Oc1ccc2ccccc2c1 | 1.07 and 1.1 | 1.03 and 1.09
CCOC(=O)[C@@H](N)Cc1ccc(-c2cc(O[C@H](c3ccc(Cl)cc3-n3ccc(C)n3)C(F)(F)F)nc(N)n2)cc1 | 0.925 | 1.06
Cc1cc2sc(NC(=O)Cc3ccccc3)nc2cc1Cl | 1.02 | 1.38

SMILES | PER2::LUC luminescence (time after treatment 24 h) | PER2::LUC luminescence (time after treatment 30 h)
COC(=O)c1cc(O)c(=O)c2c(O)c(O)ccc2c1 | 0.836 | 0.924
O=C(Nc1cccc(Cl)c1)c1ccccn1 | 1.65 | 1.48
C[C@@H]1C[C@H]2O[C@@H]2/C=C\C=C\C(=O)Cc2c(Cl)c(O)cc(O)c2C(=O)O1 | 0.116 | 0.177
C[N+]1(C)CCC(OC(=O)C(O)(c2ccccc2)C2CCCC2)C1 (stereo unspecified) | 1.07 | 1.03
COc1ccc(CNC(=O)c2sc3nc(C)cc(C)c3c2N)cc1 | 0.953 | 0.979
CCCCCCCCCCCCCCCCCCOCC(O)CO (stereo unspecified) | 0.848 | 0.965
CC(=O)NC[C@H]1CN(c2ccc(-c3ccc(CNCc4cnn[nH]4)cc3)c(F)c2)C(=O)O1 | 1.03 | 1.09
COC1=C[C@@H](C)[C@@H]2C[C@H]3OC(=O)C[C@H]4C(C)=C(OC)C(=O)[C@H]([C@@]2(C)C1=O)[C@@]34C | 0.928 | 0.9
N#Cc1ccc(C(c2ccc(C#N)cc2)n2cncn2)cc1 | 0.794 | 1.11
C[C@@]1(C(=O)Nc2ccc(F)nc2)CCCN1c1nc(Nc2cc(C3CC3)n[nH]2)c2cccn2n1 | 0.365 | 0.387
Clc1ccc(CCC(Cn2ccnc2)Sc2c(Cl)cccc2Cl)cc1 (stereo unspecified) | 1.09 | 1.22 and 1.09
CCCCCc1c2c(cc(O)c1C(=O)O)OC(=O)c1c(cc(OC)cc1C(=O)CCCC)O2 | 0.957 | 0.919
CN(C)C(=O)Nc1cccc(-c2ccc(N(C)C)cc2)c1 | 1.15 | 1.15
N[C@H](C(=O)O)c1ccc(O)c(C(=O)O)c1 | 1.02 | 0.987
COc1ccc([C@@H]2CC(=O)c3c(O)cc(O)cc3O2)cc1O | 1.03 and 1.23 | 1.09 and 1.32
CCOC(=O)c1cc(C#N)c(N2CCC(C(=O)NS(=O)(=O)Cc3ccccc3)CC2)nc1C | 1.17 | 1.07
CN(C)CCCN1c2ccccc2Sc2ccc(C(F)(F)F)cc21 | 0.395 | 0.483
O=Cc1c2[nH]c3ccccc3c2cc2[nH]c3ccccc3c12 | 1.54 | 1.5
CC(=O)Oc1ccccc1C(=O)Nc1ncc([N+](=O)[O-])s1 | 0.826 | 1.16
COc1cc(C(=O)O[C@H]2C[C@@H]3CC[C@]2(C)C3(C)C)ccc1O | 1.15 | 1.19
